# Source: publication PMC4336329 (PLoS ONE, 2015)
# In all, about 310,000 compounds went through this assay and about 14,000 (4.5%) showed an effect of 50% or more. Effects have a minus sign here. The list shows a part of the results.
# Target: human ether-à-go-go-related gene (hERG) potassium channel (human, UniProt Q12809)
# Assay: primary screen, population patch clamp on CHO cells stably expressing hERG
# 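Further: peak tail current of the secondary pulse compared with the same well before compound.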
# Sequence of human ether-à-go-go-related gene (hERG) potassium channel (Q12809 whole entry, looked up): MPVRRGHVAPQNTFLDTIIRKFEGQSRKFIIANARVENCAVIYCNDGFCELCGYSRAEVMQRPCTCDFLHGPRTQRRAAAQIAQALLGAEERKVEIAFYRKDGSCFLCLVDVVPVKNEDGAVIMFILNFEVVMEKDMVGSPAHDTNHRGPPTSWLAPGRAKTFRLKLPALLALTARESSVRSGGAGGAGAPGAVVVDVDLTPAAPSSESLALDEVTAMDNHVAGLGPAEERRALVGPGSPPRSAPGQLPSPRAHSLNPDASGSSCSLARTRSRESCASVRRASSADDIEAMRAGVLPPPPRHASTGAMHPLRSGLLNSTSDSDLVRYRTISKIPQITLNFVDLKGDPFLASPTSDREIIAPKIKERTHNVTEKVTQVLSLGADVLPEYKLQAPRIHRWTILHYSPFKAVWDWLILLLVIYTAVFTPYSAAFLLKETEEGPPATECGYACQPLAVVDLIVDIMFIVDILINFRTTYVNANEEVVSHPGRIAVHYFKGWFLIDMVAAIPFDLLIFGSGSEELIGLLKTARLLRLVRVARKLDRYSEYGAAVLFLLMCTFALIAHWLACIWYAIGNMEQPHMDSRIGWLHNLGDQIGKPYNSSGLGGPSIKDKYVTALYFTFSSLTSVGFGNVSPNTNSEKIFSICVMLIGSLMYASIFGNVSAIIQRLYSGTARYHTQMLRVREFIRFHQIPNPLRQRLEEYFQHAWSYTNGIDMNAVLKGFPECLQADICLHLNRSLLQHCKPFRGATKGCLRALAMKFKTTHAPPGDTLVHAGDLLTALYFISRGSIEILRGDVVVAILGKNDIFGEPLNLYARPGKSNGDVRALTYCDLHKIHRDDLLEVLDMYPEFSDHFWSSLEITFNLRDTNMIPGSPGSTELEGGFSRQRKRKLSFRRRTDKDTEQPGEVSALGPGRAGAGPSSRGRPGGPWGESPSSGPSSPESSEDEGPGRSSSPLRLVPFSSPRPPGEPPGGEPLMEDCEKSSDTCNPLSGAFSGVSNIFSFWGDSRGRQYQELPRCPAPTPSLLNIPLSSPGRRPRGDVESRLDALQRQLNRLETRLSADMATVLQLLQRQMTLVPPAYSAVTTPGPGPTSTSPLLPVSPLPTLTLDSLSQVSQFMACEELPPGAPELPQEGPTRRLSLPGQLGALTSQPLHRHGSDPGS
row,SMILES,"hERG current change (%, negative = inhibition) at 10uM [%]"
1,Cc1nn(-c2ccccc2)c(Cl)c1/C=N/Nc1nncc(=O)[nH]1,6.76
2,O=C(NCCCN1CCOCC1)c1ccc2c(c1)N(Cc1ccccc1)CCS2,-33.5
3,Cc1ccc2[nH]c(C(=O)N3CCCCC3)cc2c1,-1.56
4,O=C(O)CC(Cc1ccccc1)(C(=O)O)c1ccccc1 (stereo not shown),12.6
5,COc1cccc(CNC(=O)Cn2ccc3cc(S(=O)(=O)N4CCCC4)ccc32)c1,2.51
6,O=C(N/N=C/c1ccco1)c1cccs1,-1.95
7,CCOC(=O)CCCNc1ccc([N+](=O)[O-])cc1[N+](=O)[O-],-13.3
8,Cc1cc(C)c(S(=O)(=O)Nc2nccs2)c(C)c1,0.875
9,Cc1ccc(C)c(OCC(=O)Nn2c(C)nc3ccccc3c2=O)c1,11.4
10,Cc1ccnc(NS(=O)(=O)c2ccc(NC(=O)Cc3ccc(Br)cc3)cc2)n1,23.4
11,CCCCn1c(=O)[nH]c(=O)c2c1nc(-c1ccc(C(F)(F)F)cc1)n2C,3.8
12,Cc1cccc(C(=O)NNC(=O)c2ccccc2[N+](=O)[O-])c1,-1.59
13,CNC(=S)N1CCn2cccc2C1c1cc(OC)c(OC)c(OC)c1 (stereo not shown),15.3
14,CCCOc1ccc(-c2nc(N3CCN(CC)CC3)c3ccccc3n2)cc1,-17.3
15,CCCC(=O)N(CCN1CCOCC1)c1nc2c(OC)ccc(C)c2s1.Cl,-37.7
16,Cc1ccnn2cc3c(=O)n(C)c(=O)n(C)c3c12,16.8
17,Cc1cc(C)cc(NC(=O)CCNC(=O)c2ccc([N+](=O)[O-])cc2)c1,-29.4
18,CCOc1ccc2nc(N3CCCC(C(=O)NCCCN4CCCCC4)C3)sc2c1 (stereo not shown),-64.8
19,CC(=O)OCc1cc(=O)n(C)c(=O)n1C,9.67
20,O=C(CCCN1C(=O)c2ccccc2C1=O)NCC1CCCO1 (stereo not shown),12.2
21,CCOC(=O)[C@@H]1[C@H]2COc3ccc(Br)cc3[C@@H]2N2C(=O)N(c3ccccc3)C(=O)[C@]12C,-3.09
22,COc1ccc(C(CCN2CCCC2)c2c(O)cc(OC)cc2OC)cc1 (stereo not shown),-61.2
23,O=C(COc1cccc(-n2cnnn2)c1)NC1CCCCC1,-0.742
24,COc1ccc(CCn2c(-n3nc(C)cc3C)nc3c2c(=O)[nH]c(=O)n3C)cc1,3.66
25,Cc1cccc2sc(NC(=O)c3cc(S(=O)(=O)N(C)C)ccc3N3CCCC3)nc12,12
